Results as given in the supplement of paper PMC12217912.
The other results are listed elsewhere or left out. The full chains were built here from the parent and the listed change. Values near 0.05 are background.

B1: TEV protease; numbered along this chain (parent)
chain: MGESLFKGPRDYNPISSSICHLTNESDGHTTSLYGIGFGPFIITNKHLFRRNNGTLVVQSLHGVFKVKDTTTLQQHLVDGRDMIIIRMPKDFPPFPQKLKFREPQREERICLVTTNFQTKSMSSMVSDTSCTFPSGDGIFWKHWIQTKDGQCGSPLVSTRDGFIVGIHSASNFTNTNNYFTSVPKNFMELLTNQEAQQWVSGWRLNADSVLWGGHKVFMVKPEEPFQPVKEATQL

Variants of: B1
Experiment: raw area under fraction-flipped curve 0-4 h after induction (AUC4h, not background-subtracted), DNA-recorder readout of cleavage of the substrate (dimensionless); higher = more cleavage of the substrate by the protease variant
Settings: temperature: 34 °C; time window: 0-4 h after rhamnose induction
Experimental: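 In vivo DNA recorder in E. coli TOP10(DE3) ΔrhaA at 34 °C. Each TEVp single-site mutant (parent TEVp 0) is paired with a single-site variant of the 7-mer TEVs (canonical ENLYFQ|S). The substrate sits between flexible linkers in a Bxb1-sfGFP-TEVs-SsrA fusion, so cleavage stabilises Bxb1 and speeds flipping of a recombination array, read by NGS. The value is the raw area under the fraction-flipped curve over 0-4 h after rhamnose induction (AUC4h), with ≥20 reads per time point. It is not background-subtracted; inactive controls average about 0.047.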
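Also: Bxb1 expression induced with 0.2% (w/v) L-rhamnose at OD600 near 0.5, cultures sampled hourly, flipped fraction per protease–substrate barcode pair counted by paired-end Illumina sequencing.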

Variant | area with substrate CNLYFQS | area with substrate HNLYFQS | area with substrate KNLYFQS | area with substrate LNLYFQS | area with substrate NNLYFQS | area with substrate PNLYFQS | area with substrate SNLYFQS | area with substrate TNLYFQS | area with substrate VNLYFQS | area with substrate WNLYFQS | area with substrate DNLYFQS | area with substrate FNLYFQS | area with substrate GNLYFQS | area with substrate INLYFQS | area with substrate MNLYFQS | area with substrate RNLYFQS | area with substrate QNLYFQS | area with substrate YNLYFQS
K216V | 0.0611 | 0.0597 | 0.0722 | 0.0626 | 0.0663 | 0.0685 | 0.0679 | 0.0687 | 0.0419 | 0.063 |  |  |  |  |  |  |  | 
T23G | 0.0793 | 0.0647 | 0.055 | 0.0547 |  | 0.0616 |  | 0.0553 | 0.0551 | 0.0482 | 0.0643 | 0.0446 | 0.0599 | 0.0476 | 0.0422 | 0.07 |  | 
L191C | 0.0559 | 0.0667 | 0.0682 |  | 0.0715 | 0.0528 |  | 0.0611 |  | 0.0509 | 0.0679 |  | 0.0457 | 0.0667 | 0.101 |  | 0.0827 | 0.0551
L33S | 0.0628 | 0.0602 | 0.0627 | 0.0632 | 0.0476 | 0.0676 | 0.0566 | 0.0644 |  | 0.0546 | 0.0766 | 0.0558 | 0.0523 |  | 0.0578 |  |  | 0.0638
T192L | 0.0927 | 0.0679 | 0.07 | 0.0914 |  |  | 0.103 | 0.0646 | 0.0656 | 0.0607 |  | 0.0716 | 0.0805 | 0.0605 | 0.0608 |  |  | 
A232R | 0.0504 | 0.0659 |  |  | 0.0686 | 0.0728 |  | 0.0684 |  | 0.0617 | 0.0772 | 0.0656 | 0.088 | 0.0715 | 0.074 | 0.0623 | 0.068 | 0.0613
Y12Q | 0.0677 | 0.0594 | 0.0744 | 0.0722 | 0.0748 | 0.0671 | 0.0704 |  |  | 0.058 | 0.103 | 0.0596 | 0.076 |  | 0.0682 |  |  | 0.0619
T119I | 0.0733 | 0.0671 |  | 0.0762 |  |  |  | 0.0731 | 0.0898 | 0.0586 | 0.082 |  |  |  |  | 0.0749 |  | 
P104V | 0.0621 | 0.0617 | 0.0686 |  | 0.0624 | 0.0642 | 0.053 | 0.0637 |  | 0.0585 | 0.0597 | 0.0546 |  |  | 0.0609 | 0.0468 |  | 0.0587
P96C | 0.0758 | 0.0596 | 0.0789 | 0.0948 | 0.0682 |  |  |  |  | 0.0654 |  | 0.0655 |  |  |  |  |  | 0.0714
P134Y | 0.0631 | 0.058 | 0.067 | 0.0633 |  | 0.0569 | 0.0382 | 0.0601 |  | 0.0644 | 0.0691 | 0.051 | 0.0771 |  | 0.054 |  |  | 0.0594
G150T | 0.0491 | 0.061 |  | 0.0689 | 0.0588 | 0.0542 | 0.0601 | 0.0621 | 0.0564 | 0.0649 | 0.0642 | 0.0573 | 0.0678 | 0.0544 | 0.0594 |  | 0.0676 | 0.0607
H215Q | 0.0646 |  | 0.0833 | 0.0604 |  |  | 0.0681 | 0.067 | 0.0585 | 0.0607 | 0.0372 |  |  | 0.0588 |  |  |  | 
S32F | 0.0762 | 0.0621 | 0.068 | 0.0652 | 0.0677 |  | 0.075 | 0.0603 |  | 0.0569 | 0.0545 | 0.054 | 0.0736 | 0.0561 | 0.0527 |  |  | 0.0416
E25C | 0.0634 | 0.0638 | 0.0457 | 0.07 | 0.0647 | 0.0584 | 0.0631 | 0.0681 | 0.0663 | 0.0532 | 0.0742 | 0.0626 | 0.0667 | 0.0635 | 0.067 | 0.0788 |  | 0.065
T44R | 0.0567 | 0.0465 | 0.0511 | 0.0477 | 0.0369 | 0.0328 |  | 0.0476 | 0.051 | 0.0369 | 0.0418 | 0.0471 | 0.0466 |  | 0.0513 |  | 0.0495 | 0.0428
V200Y | 0.0737 | 0.0675 |  | 0.0614 | 0.0674 |  | 0.0643 | 0.0572 |  | 0.0829 | 0.044 |  | 0.0627 |  |  |  |  | 0.0587
V157G | 0.0759 | 0.0529 | 0.0619 |  | 0.0869 | 0.0491 | 0.0474 | 0.0551 |  | 0.0435 | 0.0473 | 0.0503 |  |  |  |  |  | 
D208M | 0.0612 | 0.0463 | 0.0648 | 0.0656 | 0.064 | 0.0686 | 0.0609 | 0.075 | 0.0663 | 0.0597 |  | 0.0518 | 0.0632 | 0.09 |  | 0.0638 | 0.0553 | 0.0606
I110V | 0.0619 |  | 0.0463 | 0.0676 | 0.067 |  | 0.0705 | 0.0661 |  | 0.0583 | 0.0761 | 0.0661 | 0.0732 | 0.0546 |  | 0.0756 |  | 0.0694
R160T | 0.0722 | 0.0619 |  |  |  |  |  | 0.0679 | 0.0722 | 0.0657 |  | 0.0633 |  |  | 0.0586 | 0.0428 |  | 
L73V | 0.0494 | 0.068 | 0.0594 | 0.0588 |  | 0.0718 |  | 0.0632 | 0.0661 | 0.0732 | 0.0799 | 0.0609 |  |  | 0.101 |  |  | 0.0501
C152R | 0.0676 | 0.0524 | 0.048 | 0.0613 | 0.0636 |  |  | 0.0579 |  | 0.0605 | 0.0584 |  | 0.0178 | 0.0585 |  |  |  | 
D208H | 0.0551 |  | 0.0656 |  |  |  | 0.0663 |  |  | 0.0551 | 0.0709 |  |  |  | 0.0667 |  |  | 
T72K | 0.0629 | 0.0568 | 0.0579 | 0.068 | 0.083 |  | 0.0629 | 0.0613 | 0.0562 | 0.0665 | 0.066 | 0.06 | 0.0736 | 0.0604 | 0.068 |  |  | 0.0609
H21I | 0.0758 | 0.057 |  | 0.0906 | 0.056 |  |  | 0.0648 | 0.0577 | 0.0596 | 0.055 | 0.0548 | 0.0535 |  | 0.0583 |  | 0.0647 | 0.0674
P184R | 0.0544 | 0.0375 |  |  | 0.0603 | 0.0536 |  | 0.058 |  |  |  |  |  | 0.0494 |  |  | 0.0895 | 0.0429
S4L | 0.0644 | 0.0717 | 0.0614 | 0.0529 | 0.0573 | 0.0679 | 0.058 | 0.0585 | 0.0646 | 0.0632 | 0.0728 | 0.108 | 0.0591 | 0.071 | 0.0549 | 0.0631 | 0.0705 | 0.0723
